# Data reported in PubChem BioAssay AID686979 (National Center for Advancing Translational Sciences (NCATS), 2013).
# Out of some 420,000 compounds screened, about 50,000 (12%) were called active. This list was built around the results that the source calls inconclusive (neither active nor inactive); the mix of calls is not that of the screen. The call rests on the fitted dose curve; in most records, active means well fitted inhibition curve with a large enough effect; inconclusive means small, poorly fitted or top-dose-only effect; inactive means flat fitted curve, though single readings scatter. Potencies of inconclusive entries are left out as doubtful fits.
# Assay: qHTS for Inhibitors of human tyrosyl-DNA phosphodiesterase 1 (TDP1): qHTS in cells in presence of CPT; further: nearly all actives have a fitted effect of over 55% in size
# Conditions: chicken DT40 Tdp1-/-;hTDP1 cells + 20 nM CPT, ATP luminescence, 48 h; series mostly up to 46.2 µM
# Summary of the method: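 Chicken DT40 Tdp1-/- cells stably complemented with human TDP1 were seeded at 400 cells/well in medium containing 20 nM camptothecin, exposed to pin-transferred compounds, and grown at 37 °C for at least 48 hr. Viability was read as ATP luminescence.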
# Potency means the concentration at half of the fitted maximal effect; tags describe the fitted curve by direction and shape.
row,SMILES,Potency
1,O=C(CN1CCN(c2ccccn2)CC1)Nc1cccc(Cl)c1Cl,"inconclusive [inhibitor, single point]"
2,CCc1ccccc1NC(=O)CN1C(=O)CCSc2ccc(S(=O)(=O)N3CCCC3)cc21,"inconclusive [inhibitor, single point]"
3,CCN(CC)S(=O)(=O)c1ccc2c(c1)nc(CN(C)C(=O)Nc1ccc(C)c(F)c1)n2C,"inconclusive [inhibitor, single point]"
4,CC(=O)[C@@H]1[C@H]2[C@H](C(=O)[C@H]3OC[C@@H]2O3)[C@H]2C=Cc3ccccc3N21,"inconclusive [inhibitor, partial curve, poor fit]"
5,COc1ccc(S(=O)(=O)N2CCOC23CCN(S(=O)(=O)c2ccc(C)cc2)CC3)cc1,"inconclusive [inhibitor, single point]"
6,CN(c1ccccc1)S(=O)(=O)c1cccc(NC(=O)C2CCCO2)c1 (stereo not drawn),inactive
7,O=C(C1=C(O)C(=O)N(Cc2ccco2)C1c1ccccc1F)c1cccs1 (stereo not drawn),"inconclusive [inhibitor, single point]"
8,CCCc1[nH]n(-c2ccc(F)cc2)c(=O)c1C=Nc1ccc(C)cc1,"inconclusive [inhibitor, full curve, poor fit]"
9,Cc1ccc(C)c(N2CCN(S(=O)(=O)c3c(C)[nH]c(C)c3C(=O)N3CCCCC3)CC2)c1,"inconclusive [inhibitor, single point]"
10,CCOC(=O)C1CCCN(C(=O)Cn2ncc3c4ccccc4n(Cc4ccccc4)c3c2=O)C1 (stereo not drawn),"inconclusive [inhibitor, single point]"
11,Cn1c(=O)c2c(nc(SCC(=O)c3cccs3)n2Cc2ccc(F)cc2)n(C)c1=O,active: 20.6 µM
12,COC(=O)c1ccc(CSc2nc3c([nH]c4ccccc43)c(=O)n2-c2cccc(Cl)c2)o1,"inconclusive [inhibitor, partial curve]"
13,O=C1NC[C@@H](Cc2cccc3ccccc23)N(CCc2cccc(F)c2)C1=O,"inconclusive [inhibitor, single point]"
14,O=C(Nc1ccc(F)cc1)C1CCCN(S(=O)(=O)c2ccc(-n3cnnn3)cc2)C1 (stereo not drawn),inactive
15,Cc1cccc(NC(=O)CNC(=O)c2cccs2)n1,inactive
16,O=C(NCC1([N+](=O)[O-])CN(C(=O)c2ccccc2)CN(C(=O)c2ccccc2)C1)c1ccccc1,inactive
17,O=C(CSc1ccc(F)cc1)Nc1ccc2c(c1)C(=O)NC2=O,inactive
18,Cc1cccc(C(=O)N2CCC(=O)N([C@H](COCc3cccc(Cl)c3)Cc3ccccc3)CC2)c1,active: 23.1 µM
